The source of these data is ChEMBL document CHEMBL4888484, “Replenishing the malaria drug discovery pipeline: Screening and hit evaluation of the MMV Hit Generation Library 1 (HGL1) against asexual blood stage Plasmodium falciparum ,using a nano luciferase reporter read-out” (2022).

Out of some 150,000 compounds screened, about 540 (0.36%) showed an effect of 50% or more. Some of the results follow.

The subject of this assay is Plasmodium falciparum. Description: Primary screen in NF54 nanoGlo assay, in single point, at 2uM, 72h; a lower Z score goes with more inhibition. The note with it: timepoint 72 hour. It counts as functional, Erythrocyte.
The % Inhibition is the drop in the measured response relative to a control, in per cent. Consider `CN=C(NCc1noc(C)n1)N[C@@H](C)c1cccc(-n2cccn2)c1`, for which the “% Inhibition” value is -2% and the Z score came out at 0.35.
For `CC1CCNC(=O)C1NC(=O)NCCc1ccsc1` (centres undefined), in that order: -13% and 1.67.
For `O=C(C1CCCC1)N1CCc2nn(Cc3ccccc3)c(=O)n2CC1`, in that order: -14% and 1.69.
On to `Cc1ccc2oc(CNc3nnc(C)n3C)cc2c1`, for which the “% Inhibition” value was 7% and the Z score is -1.06.
Take `COc1cc(C(=O)NC2(c3ccccc3)CCCC2)sc1S(N)(=O)=O`: the “% Inhibition” value is reported as -13% and the Z score amounted to 1.81.
For `CC(C)c1nccc(-c2nccn2[C@H]2CC(=O)N(Cc3ccccc3)C2)n1`, in that order: -8% and 0.89.
The like results for `CN(C)CCO[C@H]1CCOC[C@H]1NC(=O)c1cccc(C(F)(F)F)c1` were, in that order, -5% and 0.79.
The like results for `CCOc1ccc(-c2cn(C3CN(C(=O)[C@H]4CCC(=O)N4)C3)nn2)cc1` were, in that order, -14% and 1.24.
Consider `Cc1cc(C(F)(F)F)c(N2C[C@@H]3C(=O)NC(=O)[C@@H]3C2)nn1`, for which the “% Inhibition” value is listed as -16% and the Z score stood at 2.99.
For `Cc1cnccc1CC(=O)N(C)CC(=O)Nc1cccc(Cl)c1`, in that order: -2% and 0.29.
For `O=C(Cc1cn(Cc2ccc(F)cc2)c2ccccc12)N1CCCc2ccccc21`, in that order: -4% and 0.76.
The like results for `CO[C@H](C(=O)Nc1sccc1S(C)(=O)=O)C1CC1` were, in that order, 24% and -2.7.
As to `CCOc1cc2c(cc1CN1CCc3[nH]cnc3[C@@H]1C(=O)O)CCC2`, the “% Inhibition” value is reported as -12% and the Z score is 1.53.
The like results for `C[C@H](O)c1ccn(Cc2nnnn2-c2ccccc2)n1` were, in that order, -5% and 0.78.
Take `COc1ccc(-c2noc(CCCC(=O)Nc3ccc(S(=O)(=O)N4CCC(C)CC4)cc3)n2)cc1`: the “% Inhibition” value is given as -26% and the Z score is 2.3.
The like results for `CC(=O)N1CC(C(=O)NCc2cccnc2)CCC1c1cccc(C(F)(F)F)c1` (centres undefined) were, in that order, -9% and 0.99.
The like results for `CC[C@H](C)NC(=O)Cn1c(=O)ccc2cc(S(=O)(=O)N3CCC(C)CC3)ccc21` were, in that order, -4% and 0.54.
For `COCc1noc(CN2CC(=O)N(c3cccc(Cl)c3)C[C@@H]2C)n1`, in that order: 7% and -0.9.
Consider `CN1CCN(C(=O)c2cncc(-c3cccc4ccccc34)n2)CC1`, for which the “% Inhibition” value is on record as -3% and the Z score is 0.51.
Turning to `Cc1ccc(C)c(Cn2c(C(=O)NCCc3ccccn3)cc3cc(NC(=O)COc4ccc(Cl)cc4)ccc32)c1`, the “% Inhibition” value came to 30% and the Z score is -3.61.
The like results for `O=C1C[C@H](c2nc(C3CC3)no2)CN1c1ccccc1` were, in that order, -1% and 0.11.
Regarding `CC(=O)Nc1c(-c2ccccn2)nsc1C(=O)NCc1ccccc1C`, the “% Inhibition” value is reported as -9% and the Z score is reported as 0.86.
The like results for `COc1ccc(C)cc1S(=O)(=O)N1CCCN(C2CCC2)CC1` were, in that order, -5% and 0.83.
For `Cc1ccccc1-c1nnc2c3ccc(Cl)cc3nc(N3CCN(C(=O)C(C)C)[C@@H](C)C3)n12`, in that order: 8% and -1.22.
The like results for `COc1cccc(C(=O)[C@H]2CCCN(C(=O)c3cc[n+]([O-])cc3)C2)c1` were, in that order, 1% and -0.09.
In the case of `O=C(c1ccc2c(c1)OCCO2)N1CCc2ccccc21`, the “% Inhibition” value is -12% and the Z score is on record as 1.63.
The like results for `CCOc1ccc(S(=O)(=O)c2c(C(=O)N3CCCCC3)cnc3ccc(F)cc23)cc1` were, in that order, -6% and 0.59.
The like results for `NC(=O)COC(=O)[C@H](NCC(F)(F)F)c1cc(Cl)cc(Cl)c1` were, in that order, -14% and 1.89.
The like results for `O=C(N[C@H]1CCN(Cc2ccccn2)C[C@@H]1O)c1ccc(Cl)o1` were, in that order, -8% and 0.83.
For the compound `CC(C)n1cnnc1[C@H](C)NC(=O)CN1CCOCC1`, the “% Inhibition” value is -1% and the Z score was found to be 0.11.
In the case of `O=C(O)c1cc(N2CCC[C@H](c3nccn3CC3CC3)C2)nc2ccccc12`, the “% Inhibition” value is recorded as -15% and the Z score is listed as 1.98.
For `CC(C)NC(=O)N(CC(=O)Nc1nc(-c2ccccc2)cn1-c1ccc(C(C)C)cc1)CC1CC1`, in that order: -13% and 1.84.
The like results for `Cc1ncc(CN(C)c2ccsc2)o1` were, in that order, 2% and -0.18.
Turning to `Cn1nc(C2CC2)cc1C(=O)N[C@H]1CCO[C@H](c2cccnc2)C1`, the “% Inhibition” value is -7% and the Z score came out at 0.92.
For the compound `Cc1cc(C)c2c(C)c3c(F)c(F)c(F)c(F)c3nc2c1`, the “% Inhibition” value is listed as -9% and the Z score is 1.27.
For `Cc1nc2nc(CN3C[C@@H]4CC[C@H]3CN(c3ncccn3)C4)cc(O)n2n1`, in that order: -12% and 2.02.
The like results for `CN1[C@@H](CCC(=O)NCc2cccs2)CNC(=O)[C@@H]2[C@H]1CCN2Cc1ccc(O)cc1` were, in that order, 11% and -1.42.
For `CN1CCCOc2cccc(c2)[C@@H]2N(C(=O)Cn3cnnc3)CC[C@]23C(=O)N(CC1=O)c1ccccc13`, in that order: -3% and 0.62.
On to `CCC(CC)NC(=O)Nc1ccc(C)cc1`, for which the “% Inhibition” value is listed as 5% and the Z score is on record as -0.91.
For `CCc1nc2n(n1)C(c1ccc(N(C)C)cc1)CC(C)N2` (centres undefined), in that order: 2% and -0.24.
For `Cc1ccc(C(C)NC(=O)C2COCC(=O)N2Cc2ccccc2)o1` (centres undefined), in that order: 7% and -1.06.
The like results for `COc1ccc(-n2nnnc2-n2cccn2)cc1N` were, in that order, 2% and -0.32.
